± gives the standard deviation of the averaged measurements. The list shows a part of the results.
What follows are sequences tested on PfAP2-LT AP2 domain (GST-tagged) (assay: gcPBM binding intensity (ln(normalized median fluorescence intensity)); higher = stronger DNA binding).
In short: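 Alexa488 anti-GST antibody, scanned at 488 nm, detected GST-tagged P. falciparum DNA-binding domains that had been expressed in E. coli and incubated for 1 h on an Agilent 4 × 180k array. The array carried primer-extended double-stranded 36-bp intergenic genomic probes and negative controls. Binding intensity is the highest Masliner-normalised natural-log median intensity across replicate spots of either orientation of each probe.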

| Sequence | gcPBM binding intensity (ln) |
| --- | --- |
| AACTTGTATATATACACACACACACTATCTTTTTTT [CACACA_site8601] | 9.71 ± 0.3 |
| ATATGTTTACGTAAATGTACACGTCAGTATATTTCT [XGTACX_site8199] | 9.08 ± 0.4 |
| ATATATATATAACATTGTACACACAAAGAAATAATA [XGTACX_site6440] | 9.21 ± 0.41 |
| GCAACAAAAAATCAGACATGCATTTTAAAATGAATA [TGCATGCA_site846] | 8.81 ± 0.52 |
| ACACATTATAAAACTGTCGCTCATAAAGAAGAATGA [CACACA_negctrl_site999] | 9.03 ± 0.42 |
| CATATTGAATATTTAACACACATTTCGCTTAATTCA [CACACA_site2086] | 8.87 ± 0.4 |
| TTATATATAAAATACTGTACATTTAATTGATGGTTT [XGTACX_site2073] | 8.67 ± 0.41 |
| TATAAAAAAAAAATTTGTACATAATAATATATATAT [XGTACX_site2074] | 8.63 ± 0.34 |
| GAATGAATTGTTATTAGTACACATGTGAATTATAAA [XGTACX_site6790] | 8.76 ± 0.45 |
| CTTTTATATGTCTAATGTACGGGCAATATAAATTTG [XGTACX_site8323] | 8.54 ± 0.47 |
| AAAAAAAACGGACACACACACATAAATATATATAAA [CACACA_site4260] | 9.86 ± 0.34 |
| AAAAGGTATAGAAACACACACACGTGAATATAGTTT [CACACA_site1905] | 9.56 ± 0.32 |
| ATATTTTATTTTAATACACACAAGTTATATAATCAC [CACACA_site780] | 8.9 ± 0.4 |
| CACACCCACCAACACACACACAAAAAAAAAAAGAAA [CACACA_site500] | 9.56 ± 0.47 |
| AAAAAAAAAAAAAGTGCACACATAAAAATATGATCT [CACACA_site8090] | 9.23 ± 0.4 |
| TACAAATTTATATAAAGTACAAAAAATAATAAAAAT [XGTACX_site7355] | 8.84 ± 0.34 |
| ACATATGTTTTATGTAGTACTTATTTATTATTATAT [XGTACX_site7528] | 8.9 ± 0.38 |
| TTGTTCGATATATGCACACAGTTTTGTTATTTTTCC [CACACA_site4972] | 9.27 ± 0.45 |
| ATGAATAAATAGGTCACACACAAATATATATAAATA [CACACA_site2416] | 9.38 ± 0.43 |
| CACTACACTGTTAATAGTACATATATTTAAAAAAAA [XGTACX_site7371] | 8.62 ± 0.52 |
| AGTTAATGAATAGGCACACATATATCTGTATAAATA [CACACA_site4448] | 9.04 ± 0.44 |
| AGAAAAAAAAAAAGTACACACATATAATATATATAT [CACACA_site2973] | 9.09 ± 0.47 |

| Sequence | gcPBM binding intensity (ln) |
| --- | --- |
| TCAAATAATAAGTATGCATGCTATATTTATATATAC [TGCATGCA_site920] | 8.86 ± 0.31 |
| TACATTTTACTTGTTACACACATATAAAATTAACCA [CACACA_site2922] | 8.85 ± 0.35 |
| AAACGTACATAATACACACACATGTATACCTATAAA [CACACA_site7051] | 9.54 ± 0.3 |
| ATAAAAAATAAAATAAATAAAAAATATTTACCCTTA [TGCATGCA_negctrl_site396] | 8.42 ± 0.45 |
| GGATTTATTATATATACACACATACAGATATATATA [CACACA_site5222] | 8.91 ± 0.33 |
| TAAAAAAATAAATATACACACATATATATATATATA [CACACA_site1089] | 9.61 ± 0.47 |
| TGTAGAAATGGGTGCACACACATATAAAATCTATAT [CACACA_site7224] | 9.33 ± 0.4 |
| TCATTAAAAACTAAAAGTACTCAATATTATGAACAT [XGTACX_site7807] | 8.46 ± 0.42 |
| CATATATATTTGTTCACACACACACTAGAAAAAAAA [CACACA_site5380] | 9.49 ± 0.37 |
| AAACAAAATTTATTTCAAAGTTAATAATTTTTATGT [CACACA_negctrl_site232] | 8.23 ± 0.48 |
| ACATCATATTAAGAAAGTACAAAAAGAGAACATATA [XGTACX_site1268] | 8.98 ± 0.47 |
| ATATTGTAGATATTGTGTACATATTTTACAACTTTT [XGTACX_site7621] | 8.94 ± 0.35 |
| TATGTACACCCATATACACACCTCTATAATATATAT [CACACA_site4563] | 9.14 ± 0.3 |
| ATATTAATTTCTTATGCATGTTCTACCAAATTGTAT [TGCATGCA_site38] | 9.04 ± 0.3 |
| AAAAAAAATAAAAATAGTACTCAAAAAATTATGAAT [XGTACX_site3073] | 8.53 ± 0.54 |
| GATATGATATGATATGCATGTAACAAATTTTTTTAA [TGCATGCA_site268] | 8.62 ± 0.49 |
| AAAAAAAAATATATATATATATATATATTTATGTAT [GTGCAC_negctrl_site483] | 9.02 ± 0.21 |
| TTCTTCAATAATAAGTGTACATATGCATACATTATA [XGTACX_site1502] | 8.88 ± 0.42 |
| AATTAAAAAATTTATGCACACTTTAAAAAAAAAAAA [CACACA_site5962] | 8.41 ± 0.48 |
| ATAATAAAATAAGAAGCACACAAATATTATATATAA [CACACA_site9319] | 8.96 ± 0.42 |
| ATCAAATTTGGACATGCATGTGTGTGTAAAACCATG [TGCATGCA_site309] | 9.76 ± 0.31 |
| ATATTAGTCGAATGATGTACACACATACAAAACATT [XGTACX_site8613] | 9.28 ± 0.45 |

| Sequence | gcPBM binding intensity (ln) |
| --- | --- |
| AATTATTCTCTTTTCATTTGAACAATATGCTTAAAA [CACACA_negctrl_site995] | 8.46 ± 0.45 |
| AATATTTTTTAAATGTGTACATAGGTATAGCACACA [XGTACX_site8690] | 8.97 ± 0.43 |
| ACAAATATGAGAAATTGTACATATAATAAAATAGTA [XGTACX_site2573] | 8.88 ± 0.52 |
| ACACATTCGAAAAATTGTACATATATAACAGAATAT [XGTACX_site7106] | 9.04 ± 0.42 |
| AGTCATATAAATAGTAGTACTGTGTGTGAAGAAAAA [XGTACX_site5056] | 9.17 ± 0.42 |
| GACTGCACTTTAAGCACACAAATATATTTTTTTTAT [CACACA_site1249] | 8.82 ± 0.36 |
| TTCTATTATGTGACTCAATTCTTCATGGGTGTATAA [TGCATGCA_negctrl_site140] | 8.85 ± 0.5 |
| AATGTATTTATTTTTTGTACATATCGTGTGTGTATT [XGTACX_site1009] | 9.68 ± 0.48 |
| TTTTTTTTTAAATATACACACACATTTATACATATA [CACACA_site9122] | 9.16 ± 0.54 |
| TTTGGAATATAATATTGTACATATTATATATATATA [XGTACX_site3187] | 8.6 ± 0.34 |
| CCTCATCCACTATGCACACAAAAAAGAAATACACTA [CACACA_site3422] | 9.18 ± 0.48 |
| TTTTTTTTTTTTTTAACACACATATATATATTTTTC [CACACA_site1922] | 8.76 ± 0.47 |
| TAATGGATTATACGTGCACACATATATACAAATAAA [CACACA_site8116] | 9.08 ± 0.42 |
| TTCTCAAATATAATAAAATTATAAAGTGACCTAACT [GTGCAC_negctrl_site493] | 8.43 ± 0.35 |
| TTATTTATTTTTATATGTACACAAAAAAAAAAAAAA [XGTACX_site1459] | 8.16 ± 0.23 |
| AATATATATAACGTTGGTACACAAAAATTATTAAAT [XGTACX_site8572] | 9.05 ± 0.44 |
| AATACGCATTTTAGTACACACTTAAAAAGTTATTTT [CACACA_site7401] | 8.73 ± 0.35 |
| AATTATATTAATTCTTCATTACATTTTAAAATATTA [XGTACX_negctrl_site510] | 8.34 ± 0.42 |
| TGCTATTATTTATGTACACACCAATTTATTTATAAT [CACACA_site6029] | 8.97 ± 0.42 |
| TTCGTTATATTTTGATGTACTGATTCATATATATAT [XGTACX_site1835] | 9.09 ± 0.42 |
| ATTGATTTTTAATATACACACATAAGGACCACAAAA [CACACA_site4344] | 8.97 ± 0.35 |
| AGAGAATATTTCCACACATGCAAATGTTATATGTAA [TGCATGCA_site282] | 8.77 ± 0.42 |

| Sequence | gcPBM binding intensity (ln) |
| --- | --- |
| TATACATATGTATGCACACATACATACACATAGAAT [CACACA_site3480] | 9.21 ± 0.31 |
| TATATTATTTAAAAAGTGCAGTTACAAGATGAACCT [GTGCAC_site9641] | 8.46 ± 0.33 |
| TAATATTTATTCTATTGTACATAAAATATATATATA [XGTACX_site7132] | 8.39 ± 0.33 |
| GGAAAGACATTACACAGTACCCAGGAAATCTACGGA [XGTACX_site2002] | 8.91 ± 0.4 |
| ATTATATATGTATAAATATGCTATATATATATATAT [GTGCAC_negctrl_site430] | 9.4 ± 0.29 |
| TCAACATTTAAAAATAGTACTCATAAACCTTTCGAA [XGTACX_site4111] | 8.46 ± 0.44 |
| ATAAATAAAAAACACACACACACACCCAAAAAAAAA [CACACA_site2624] | 9.88 ± 0.3 |
| TATCTCTCTTTCTGCTGTACATAAAAATTATATAAT [XGTACX_site5961] | 8.6 ± 0.39 |
| AACATATTTTTAAATACACACACATAAAAAAAAAAA [CACACA_site8279] | 9.14 ± 0.33 |
| CTCAACATATACGTAACACACATATATATATATATA [CACACA_site3838] | 9.93 ± 0.23 |
| TCTACAAGGCTTGATCGTACAATTTGAATGTATTTG [XGTACX_site7698] | 8.8 ± 0.46 |
| AGCATAAACAATTTTTGAAAAAATATACACTCATAG [CACACA_negctrl_site890] | 8.64 ± 0.43 |
| TATATATATATATACACACACACAAAAAAAAAAAAA [CACACA_site1505] | 9.61 ± 0.38 |
| AAAATAACGAGTCAAACACACATATATATATATATA [CACACA_site2039] | 10.1 ± 0.2 |
| AGATTATATATATGTATATATGTATATATTTATATA [CACACA_negctrl_site1797] | 8.51 ± 0.44 |
| TATGCAAGGAACCACACACACACACCCAAATGTATA [CACACA_site750] | 10.1 ± 0.2 |
| AATTAAAAATTCAAGTGTACTTTTATATTATTATAC [XGTACX_site4106] | 8.88 ± 0.28 |
| ATTATAATAGTTAAATGTACACACTAACTACATGGA [XGTACX_site6918] | 8.89 ± 0.38 |
| ATTCGGATATATATCACACATAACTTTAATAATATA [CACACA_site5720] | 8.65 ± 0.47 |
| TAAATAGCCAAACGCACACCCACAAAAAAAAAAAAA [CACACA_site1554] | 9.01 ± 0.4 |
| TCATATTTGCCTTTTTATTTAGAACACAAAAAAAAA [CACACA_negctrl_site1152] | 7.97 ± 0.4 |
| TATATATAATATACATGTACAAATGTATTTAAAAAT [XGTACX_site6090] | 8.84 ± 0.33 |

Reference: the supplement of paper PMC11417369
